Measurements as given in PubChem BioAssay AID463173 (ICCB-Longwood Screening Facility, Harvard Medical School, 2010).
The campaign covered roughly 52,000 compounds. About 1,700 (3.3%) were called active. Cut-off read from the data, not from the text of the source: active = survival mostly below about 52% (no sharp cut-off); inactive = mostly above about 56%. This is one part of the list.

Test system: Wild type
Test: growth inhibition of S. aureus wild type versus tarO mutant, primary screen, teichoic acid synthesis inhibitors, RN4220, OD600 (AID 463173)
Settings: S. aureus RN4220 wild type/DeltatarO growth, OD600, 18 h, stronger effect = lower value, screened at 18.75 µg/mL (by protocol)

SMILES | survival
CC(=O)N1CCCc2cc(S(=O)(=O)N(Cc3ccccc3)C(C)C)ccc21 | inactive: 73%
COc1cc(OC)c(NC(=O)CCNS(=O)(=O)c2ccc3c(c2)oc(=O)n3C)cc1Cl | inactive: 67%
CC(=O)Nc1cccc(NC(=O)C(=O)NCCc2csc3nc(-c4ccccc4F)nn23)c1 | inactive: 57%
CCOC(=O)c1ccccc1NC(=O)c1nn(C)c2c1COc1ccccc1-2 | inactive: 77%
CCCN1CCN(CCCNC(=O)Cn2c(-c3cccs3)cc3cc(Cl)ccc32)CC1 | inactive: 71%
Cc1cc(Cl)ccc1NC(=O)c1cc2ccccn2n1 | inactive: 68%
NC(=O)c1c(NC(=O)CN(C(=O)c2cccs2)C2CCCC2)sc2c1CCCC2 | inactive: 106%
Cc1ccc(CNC(=O)CSC2=Nc3ccccc3C3=NC(C)C(=O)N23)cc1 (centres undefined) | inactive: 70%
Cc1ccc2occ(CC(=O)N3CCN(c4cccc(Cl)c4)CC3)c2c1 | inactive: 102%
CC(C)CCNC(=O)c1cn(C)c2ccc(S(=O)(=O)N3CCOCC3)cc2c1=O | inactive: 83%
Cc1ccc(OCc2nnc(-c3ccccc3)o2)cc1 | inactive: 77%
COc1ccccc1N1CCN(S(=O)(=O)c2ccc(-c3cnc(C4CC4)o3)cc2)CC1 | inactive: 132%
Cc1cc(C)c(NC(=O)Cn2c(=O)n(Cc3ccccc3)c(=O)c3c(C)c(C(=O)N(C)C)sc32)c(C)c1 | inactive: 121%
COc1cc2c(=O)c(S(=O)(=O)c3ccccc3)cn(CC(=O)Nc3ccccc3C)c2cc1OC | inactive: 84%
COc1cc(OC)c(NC(=O)c2c3c(nc4ccccc24)C(=O)N(C2CCCCC2)C3)cc1Cl | inactive: 47%
CCN1C(=O)C2C(c3cccs3)NC(C)(C(=O)OC)C2C1=O (centres undefined) | inactive: 110%
CCc1cccc(NC(=O)CCS(=O)(=O)c2cc3c4c(c2)CCN4C(=O)CC3)c1 | inactive: 81%
Cc1cccc(C(=O)Nc2cccc(OCc3cc(=O)n4ccccc4n3)c2)c1 | inactive: 72%
COc1cc2c(cc1OC)C(COc1ccccc1OC)N(C(=O)c1ccccc1OC)CC2 (centres undefined) | inactive: 73%
O=S(=O)(c1ccccc1)N1CCN(S(=O)(=O)N2CCCCC2)CC1 | inactive: 101%
COc1c(Cl)cc(Cl)cc1CNCCSc1nnnn1C | inactive: 85%
O=C(Nc1nc2n(n1)C(c1ccc(F)cc1)C=C(c1ccccc1)N2)c1cccc([N+](=O)[O-])c1 (centres undefined) | inactive: 117%
CCC(C)NC(=O)CSc1nc2cc3c(cc2c(=O)n1CCCCCC(=O)NCc1ccc(OC)cc1)OCO3 (centres undefined) | inactive: 60%
CCOc1ccccc1NC(=O)CN1CCN(S(=O)(=O)c2ccc(Br)cc2)CC1 | inactive: 90%
CCC1CCCCN1Cc1cn2c(-c3ccc(Br)cc3)nnc2s1 (centres undefined) | inactive: 69%
CCS(=O)(=O)N1CCc2cc(C(=O)Nc3ccc(OC)cc3OC)ccc21 | inactive: 88%
CC(=O)c1cccc(NC(=O)c2nc(-c3ccccc3)n(-c3cccc(C)c3)n2)c1 | inactive: 70%

SMILES | survival
O=C1c2ccccc2-c2onc3ccc(Oc4c(F)c(F)c(F)c(F)c4F)c1c23 | inactive: 107%
COc1ccccc1N1CCN(C(=O)Cn2c(=O)n3nc(-c4cccc(C)c4)nc3c3ccccc32)CC1 | inactive: 66%
COc1ccc(CCNC(=O)c2c(C)nn(-c3ccc(F)cc3)c2-n2cccc2)c(OC)c1OC | inactive: 60%
Cc1ccc(Nc2sc(C(=O)c3ccccc3)c(N)c2S(=O)(=O)c2ccccc2)c(C)c1 | inactive: 99%
Cc1ccc(S(=O)(=O)NCc2ccc(/C=N/NC(=O)c3ccco3)o2)cc1 | inactive: 98%
COc1ccc(-n2ncc(C(=O)Nc3ccc4c(c3)OCCO4)c2C2CCN(C(=O)OC(C)(C)C)CC2)cc1 | inactive: 129%
CCCCC1(O)CC(C)N(C)CC1C (centres undefined) | inactive: 106%
CCOc1ccc(CNC(=O)C2CCCN(S(=O)(=O)N(CC)c3ccc(OCC)cc3)C2)cc1 (centres undefined) | inactive: 117%
CCCSc1ncc(Cl)c(C(=O)Nc2c(C(=O)c3ccc(F)cc3)oc3ccccc23)n1 | inactive: 85%
Cc1ccc(S(=O)(=O)N2CCC(C(=O)Nc3ccc(Oc4ccccc4)cc3)CC2)cc1 | inactive: 77%
O=C(NCCc1ccccc1)c1ccc2c(c1)CCN2S(=O)(=O)c1ccccc1 | inactive: 84%
CCN(C(=O)Cn1nc(Cc2ccncc2)c2ccccc2c1=O)c1cccc(C(F)(F)F)c1 | inactive: 72%
CC(C)Cn1c(=O)c2ccccc2n2c(CCC(=O)Nc3ccc(F)c(F)c3)nnc12 | inactive: 84%
CCOC(=O)c1c(NC(=O)C(C)Oc2ccc(Cl)c(C)c2)sc2c1CCCC2 (centres undefined) | inactive: 50%
O=C(Cn1cc(S(=O)(=O)Cc2ccccc2F)c2ccccc21)NCc1ccccc1Cl | inactive: 60%
Cc1cc(C)cc(NC(=O)CN2C(=O)CCc3cc(S(=O)(=O)N4CCCCC4)ccc32)c1 | inactive: 77%
Cc1nn2c(=O)cc(COC(=O)c3ccc(NC(=O)c4cccs4)cc3)nc2s1 | inactive: 140%
CC(C)CSc1ccccc1NC(=O)c1sc2nc(-c3ccncc3)ccc2c1N | inactive: 83%
O=C(O)c1cc2nc3c(c(C(F)(F)F)n2n1)CCC3 | inactive: 117%
N#C/C(=C/c1ccc(-c2cccc(C(F)(F)F)c2)o1)C(=O)OC1CCCCC1 | inactive: 114%
COc1ccc(NC(=O)CCN2CCN(CCO)CC2)cc1 | inactive: 74%
CCN(c1cc(C)cc(C)c1)S(=O)(=O)c1nnc(NC(=O)c2ccco2)s1 | inactive: 51%
COc1ccc2[nH]cc(CCNC(=O)c3cnn(-c4ccccc4Cl)c3C3CCN(C(=O)OC(C)(C)C)CC3)c2c1 | inactive: 75%
Cc1cccc(N2CCN(C(=O)c3ccc(NC(=O)c4nsc5ccccc45)cc3)CC2)c1C | inactive: 60%
Cc1ccc(NC(=O)Cn2nnc(-c3nc(-c4ccc(Cl)cc4)no3)c2N)cc1C | inactive: 77%
Cc1nc2c(C(=O)NCCc3ccccc3)c[nH]n2c(=O)c1Cc1ccc(F)cc1Cl | active: -15%
CCOc1ccc(C(=O)Nc2ccc(-c3nc4ccccc4s3)c(C)c2)cc1OCC | inactive: 80%
